The chains are these.
B1: CPEB3 Ribozyme (parent)
chain: UAACAGGGGGCCACAGCAGAAGCGUUCACGUCGCAGCCCCUGUCAGAUUCUGGUGAAUCUGCGAAUUCUGCUGUAUAUCUC

Data on 83 variants can be found in the RNAGym collection of RNA variant scans (doi:10.1093/nar/gkz1192).

Read counts are not given, so values of variants with three or more changes are uncertain.

Variants of B1 are the subject of this data set. The experiment in a line: self-cleavage, relative activity (ratio to wild type); higher = more cleavage; in vitro, sequencing. In a few lines:
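Libraries of CPEB3 self-cleaving ribozyme mutants came from rounds of error-prone PCR and carried barcodes, which DNA sequencing matched to variants. In vitro transcription used T7 RNA polymerase at 37°C for 5 hours, with a further 15 min in DNase I before EDTA stopped the reaction; the ribozymes cleaved during both steps. The RNA was reverse transcribed with template switching and sequenced on Illumina. Relative activity is the cleaved/total read fraction of a variant divided by that of the unmutated ribozyme, averaged over three batches with at least 5 reads.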
Take A3U U25A A35G: the self-cleavage worked out at 0.14. A3G U49C U54C A57U U80A: the self-cleavage was determined as 0.45. Next, A3U A13U U43C U51C: 0.99; A3U U25C A57G: 0.37. Next, A3G U26C G70U: 0.22; A3U A13G U31G U67C U80C: 0.24; A3U A13G U26C A64U: 0.13.

Turning to A3U A28G A47G, the self-cleavage turned out to be 0.5. Consider C4G C12G U25G U41C A57G, for which the self-cleavage is 0.11.

Regarding A3U U60A U67C, the self-cleavage is 0.31. Next, A3U U26C A64G: 0.67; A3U A15G C23G A28U: 0.18; A3U G8U U31A U67A: 0.2. Turning to A3G U41C C59U, the self-cleavage worked out at 1.06. Next, A3G U54A G63U: 1.13; C4A G9A G22U U49C A56G U66C: 0.15. Turning to A3U A20U U49C U60C G63A, the self-cleavage came to 0.08. Regarding C4U G8C A28G, the self-cleavage was 0.09. Take A3U G30A A35U U54A: the self-cleavage was determined as 0.22. As to A3G U41C A45G U69C, the self-cleavage was found to be 0.54.

A3G U26C C44U A47G A75U: the self-cleavage turned out to be 0.57. Next, A3G U41C U60C: 0.41; A3U A15U A57G A64G: 0.59. Consider C4U A35G C37A U66C A75G, for which the self-cleavage came out at 0.28. As for C4U G30C U60C U74A, the self-cleavage stood at 0.2.

Turning to A3U U26C U43C, the self-cleavage was 0.65. Regarding A3G U60C U76A, the self-cleavage was found to be 0.5. Take A5C A13U U31C G33U U48C U58A U72C: the self-cleavage was determined as 0.06.

As for A3U U25C G30A, the self-cleavage amounted to 0.23. For the variant C4U A15G C40A A45G, the self-cleavage came out at 0.37.

For A3G U43C U51A G53C U54C A56C, the self-cleavage came to 0.32. A3U A21U U72A A75G: the self-cleavage was found to be 0.53. For the variant A3U C17G U26C, the self-cleavage was found to be 0.31. Next, A5C A13G U54C U60C: 0; A3U G8A U26C U48A A56U U66C: 0.16.

For A3U A13C U26C U72A, the self-cleavage was found to be 0.35.

For the variant A3U U26A U76C U78C, the self-cleavage stood at 1.09.

As for A3U A18G A65U, the self-cleavage was found to be 0.72. Next, A3U A28G U72C U74C: 0.96; C4U A15G A56G: 1.12. Next, A3G U49C U54G U74A U78C: 0.55; C4A A15G A56U A77G: 0.62; A5C A13C C23U: 0.15. Regarding C4U G19C U25C G30C U31C A75G, the self-cleavage worked out at 0.08.

For the variant C4U G9U A20U, the self-cleavage came out at 0.08. For the variant C4U U41C U43C C50U U51C U54C A77U, the self-cleavage worked out at 0.58. A3U A20G A28G C38A U41C A56G U67A: the self-cleavage is 0.06. In the case of A5C A13G A15G A18G A57U, the self-cleavage came to 0. Next, A3U U31C U69A: 0.29. Next, A3U A28G A45G: 0.53; A3U U41A U66G: 0.34; C4G A15U G63A A77C: 0.64. Take A3G U26C A57G U69A U78C: the self-cleavage was found to be 0.32. As to A3U A20G C29U A45U U54C U69G, the self-cleavage is 0.7. With C4U A18U U69C, the self-cleavage stood at 0.55. Next, C4G A35G U43C U54C C68U: 1.11; A3U U25C U51C: 0.11; A3U U43A A45G A64G: 0.4. Next, A3U C34G C39U: 0.32; A3U A20G A21U C81U: 0.21. Consider A3G U43C U78C, for which the self-cleavage worked out at 0.26. A3G U26C A35U U69A U72C: the self-cleavage came out at 0.1.

As to C4U A28G U80A, the self-cleavage came to 0.94. Next, A3G U26A A35G U51A A56U: 1.2. Next, A3U U43A U49C: 0.56. Turning to A5C A13G A28C U48C, the self-cleavage came to 0.19.

Consider A3U A45U U51A, for which the self-cleavage turned out to be 0.38. For the variant A3U A18U U26A A28U A35G U60A, the self-cleavage was 0.27.

In the case of C4A U31A C40G U49C, the self-cleavage stood at 0.16.

Turning to A3U U48C U67C, the self-cleavage was determined as 0.13. Next, C4A U26A A35U A65G U66C: 0.19; C4U A18U U25A A35G A47G U49C: 0.07; C4U G7A C12A A15C G19A U41C U72A: 0.06.

Consider A3U A35U U43A U80C, for which the self-cleavage was 0.62. Take A3G U26A A28U: the self-cleavage turned out to be 0.66. A3U A15G A77U: the self-cleavage came out at 0.98. Next, A3U A15G U43C U54C: 0.31; A3U U41A U49A A57G U60C U69A: 0.13; A3G U43G C71U: 0.45. For the variant A3U A15G C27A C38A G42A A45G, the self-cleavage was 0.11. For A3G U43C A57U U60A, the self-cleavage was 0.19. Next, A5C A15G A18G C23U A56G U78A: 0.12. Next, A3G U26C U31A U41A G46A: 0.07.
